Assay results: PubChem BioAssay AID1346428 (National Center for Advancing Translational Sciences (NCATS), 2018)
Where “and” joins values, the source holds several entries; their conditions need not be identical. Equal entries are not always repeated. Among all 48,000 compounds or so, about 1,200 (2.5%) were called active. About 2% were inconclusive and are not listed.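 The calls were made as follows: active = activation of at least 60% and not above a set upper limit (about 1 call in 100 departs from these limits); inconclusive = activation of 40% to 60%, or above that upper limit; inactive = activation under 40%.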 Some of the results follow.

target: Probable G-protein coupled receptor 32 (Homo sapiens) (UniProt O75388); experiment: qHTS for Agonists of Human Resolvin D1 Receptor DRV1; conditions: CHO-K1 GPR32 beta-arrestin PathHunter luminescence, 90 min; at 76.9 µM; hits give high values; zero percent set by DMSO-only wells; also: 0% is about no effect
Method in brief: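 Engineered CHO-K1 line co-expressing GPR32-ProLink and EA-beta-arrestin. Compound treatment lasted 90 min at 37 °C. Luminescence was recorded after 1 h with substrate at ambient temperature, relative to DMSO basal wells.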

Chain of UniProt O75388 (O75388 whole entry, looked up): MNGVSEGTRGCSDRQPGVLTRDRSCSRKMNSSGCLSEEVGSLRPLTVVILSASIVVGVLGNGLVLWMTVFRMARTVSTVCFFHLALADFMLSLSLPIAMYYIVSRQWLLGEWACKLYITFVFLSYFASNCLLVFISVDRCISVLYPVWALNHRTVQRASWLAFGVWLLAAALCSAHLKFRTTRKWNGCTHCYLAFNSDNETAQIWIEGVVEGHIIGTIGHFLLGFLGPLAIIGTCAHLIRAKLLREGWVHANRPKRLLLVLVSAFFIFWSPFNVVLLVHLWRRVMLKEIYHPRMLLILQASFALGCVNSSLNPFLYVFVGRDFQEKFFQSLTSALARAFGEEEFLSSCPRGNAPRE

SMILES	activation
Cc1ccc(N2CC(NC(=O)c3ccccc3Br)CC2=O)cc1 (centres undefined)	inactive: -5.68%
O=C(Nc1ccc(F)c(Cl)c1)C1CCN(S(=O)(=O)c2ccc3c(c2)CCCN3C(=O)C2CCC2)CC1	inactive: 2.54%
Cc1ccc(CSc2cn(CCNC(=O)c3cccs3)c3ccccc23)cc1	inactive: 17.7%
CC(C)Sc1nc2sc3c(c2c(=O)n1-c1ccccc1)CCCC3	inactive: -28.2%
CC(=O)c1ccc(N2C(=O)Nc3ccccc3S2(=O)=O)cc1	inactive: 33.4%
Nc1ncc(S(=O)(=O)Nc2ccc(OC(F)(F)F)cc2)cn1	inactive: -21.7%
COC(=O)c1c(NC(=O)/C=C/c2ccc(OC)cc2)sc2c1CCC2	inactive: 4.25%
O=C1CCCc2c(O)cccc21	inactive: -3.16%
CC(C)c1cnc2c(c1SCC(=O)Nc1ccc(C(N)=O)cc1)c(=O)n(C)c(=O)n2C	inactive: -22%
CCOC(=O)Cn1c(-c2cccs2)cc2cc(Cl)ccc21	inactive: -11.5%
COc1ccc(CNC(=O)CSc2ncc3c(n2)-c2cc(Cl)ccc2N(C)S3(=O)=O)cc1	inactive: -7%
COc1ccc(N(C(=O)c2cccc(C)c2)S(=O)(=O)c2ccc3c(c2)n(C)c(=O)n3C)cc1	inactive: -18.9%
CCOC(=O)c1cc(OC(=O)c2ccccc2OC)n(-c2ccccc2)n1	inactive: -5.1%
O=C(Cn1c(=O)n(-c2ccccc2)c(=O)c2ccc(C(=O)NCc3ccc4c(c3)OCO4)cc21)Nc1ccc(F)c(Cl)c1	inactive: -0.211%
CN(CCCNC(=O)c1cc2c(=O)n(C)c3ccccc3c2s1)Cc1ccccc1	inactive: 12.2%
Cc1ccc(NC(=O)Nc2cccs2)c(C)c1	inactive: -16.5%
CCN1C(=O)c2ccccc2Sc2ccc(NC(=O)c3cccc(C)c3)cc21	inactive: -1.34%
CC(C)NC[C@H](O)COc1ccc(CC(N)=O)cc1	inactive: 17.9%
COc1ccc(CCNC(=O)c2ccc3c(c2)N(Cc2cccc(Cl)c2)C(=O)c2ccccc2S3=O)cc1OC (centres undefined)	inactive: -23.1%
Cc1cccc(CC(=O)NCCc2sc3nc(-c4ccc(F)cc4)nn3c2C)c1	inactive: -15.3%
COc1ccc(OCC(=O)N(Cc2ccc(C)o2)C2CCS(=O)(=O)C2)cc1 (centres undefined)	inactive: -22.7%

SMILES	activation
CCOc1ccc(CCNC(=O)c2ccc(-c3nc(CSc4ccccc4)c(C)o3)cc2)cc1	inactive: 11.4%
CCC(C)NC(=O)CSCc1nc(-c2ccc(C)cc2)oc1C (centres undefined)	inactive: -3.02%
O=C(c1ccccc1Br)N(Cc1ccccc1F)C1CCS(=O)(=O)C1 (centres undefined)	inactive: -8.32%
CN1CCN(C(=O)c2ccc3c(c2)N(Cc2ccc(Cl)cc2)C(=O)c2ccccc2S3(=O)=O)CC1	inactive: 0.0217%
CCc1ccc(N(CC)C(=O)c2sc3nc4n(c(=O)c3c2C)CCCC4)cc1	inactive: -14.2%
COc1ccccc1NC(=O)CN1C(=O)CCSc2ccccc21	inactive: -6.85%
Cn1nnnc1SCCCNCc1ccccc1OCc1ccc(F)cc1	inactive: 0.957%
Cc1cccc(NS(=O)(=O)c2ccc3c(c2)CCN3C(=O)C2CC2)c1C	inactive: 32%
O=C(Cn1c(=O)ccc2cc(S(=O)(=O)N3CCCC3)ccc21)Nc1ccc(Cl)cc1	inactive: -2.95%
Cc1ccc(Cl)cc1NC(=O)CSCc1cnn(-c2ccccc2)c1-n1cccc1	inactive: -24.5%
CC(=O)c1cccc(NC(=O)CCCSc2nc(-c3ccco3)cc(C(F)(F)F)n2)c1	inactive: -8.23%
CCOC(=O)C1CCCN(C(=O)c2ccc3c(c2)N(Cc2ccccc2F)C(=O)c2ccccc2S3=O)C1 (centres undefined)	inactive: -13.3%
COc1ccc(CCNC(=O)CCn2c(=O)c3ccccc3n(CC(=O)Nc3cc(Cl)ccc3C)c2=O)cc1OC	inactive: 9.66%
c1cnc2c(c1)ccc1cccnc12	inactive: -2.08%
COc1ccc2c(c1)c(=O)c(S(=O)(=O)c1ccccc1)cn2CC(=O)Nc1ccc2c(c1)OCO2	inactive: 15.1%
CCCN(C(=O)Cn1ncc2c([nH]c3ccccc32)c1=O)c1ccc(F)cc1	inactive: -14.2%
CCc1ccccc1NC(=O)Nc1cc(C(=O)NCc2ccccc2OC)ccc1N1CCCC1	inactive: -16.1%
COc1ccc(NC(=O)CN2C(=O)C(c3ccc(C)cc3)=NC23CCCCCC3)cc1Cl	inactive: 10.9%
CCOC(=O)C(C)(C)Oc1ccc(Cl)cc1	inactive: -1.06% and inactive: 8.3%
CN(C)CCNC(=O)C(=O)NCC(c1cccnc1)N1CCN(c2ccccc2)CC1 (centres undefined)	inactive: 2.97%
COc1cccc(-c2nc(SCC(=O)NCC3CCCO3)c(-c3ccc(Cl)cc3)[nH]2)c1 (centres undefined)	inactive: -10.9%

SMILES	activation
Cc1ccc(NC(=O)c2ccc(CNS(=O)(=O)c3ccc4c(c3)C(C)(C)C(=O)N4C)cc2)cc1	inactive: 5.77%
COc1ccc(N2CCN(C(=O)Cn3c(-c4cccs4)cc4ccccc43)CC2)cc1	inactive: -26.8%
Cc1ccc(C)c(Cn2c(=O)n(-c3ccc(F)cc3)c(=O)c3sc4ccccc4c32)c1	inactive: 14.2%
O=C(CSc1nc2ccsc2c(=O)n1Cc1ccccc1F)NCc1ccccc1Cl	inactive: -29.2%
CC(=O)N1CCc2cc(S(=O)(=O)NC(Cc3ccccc3)C(=O)Nc3ccc(C)cc3C)ccc21 (centres undefined)	inactive: -2.67%
Cc1ccc(C(=O)Nc2ccc3oc(-c4cc(Br)ccc4Cl)nc3c2)cc1	inactive: 17.5%
CCC(=O)N1CCCc2cc(S(=O)(=O)N3CCC(C(=O)Nc4cccc(Cl)c4)CC3)ccc21	inactive: -6.63%
O=C(Nc1cccc(Cl)c1Cl)c1cc(S(=O)(=O)N2CCCc3ccccc32)ccc1F	inactive: -8.15%
COc1cc(OC)c(N(C)C(=O)CSc2c3c(nc4ccc(Cl)cc24)CCCC3)cc1Cl	inactive: -34.9%
CCc1ccc(NC(=O)CC2C(=O)N(c3ccc(OC)cc3)C(=O)N2Cc2cccs2)cc1 (centres undefined)	inactive: -19.7%
CCOC(=O)c1cnc2c(C)cc(C)cc2c1Nc1ccccc1OCC	inactive: -5.86%
Cc1nn2c(-c3ccco3)ccnc2c1-c1ccc(Cl)cc1	inactive: -10.2%
O=c1cc2nc(-c3ccccc3)nc(SCCOc3ccc(Cl)cc3)n2[nH]1	inactive: 9.42%
CN1CCc2cccc3c2[C@H]1Cc1ccc(O)c(O)c1-3	inactive: -13.9%
CCCNC(=O)Cn1nc(-c2ccc(C)c(C)c2)c2cnc3ccc(OC)cc3c21	inactive: -3.87%
COc1ccccc1-c1nc2c(c(SCc3cc(C)ccc3C)n1)Cc1c(CO)cnc(C)c1O2	inactive: 2.42%
Cc1ccc(CNC(=O)c2cc3c(=O)oc4ccc(C)cc4c3s2)cc1	inactive: -7.67%
COc1ccc(N(CC(=O)N2CCN(c3ccccc3F)CC2)S(=O)(=O)c2c(C)noc2C)cc1	inactive: -9.14%
COc1ccc2oc(=O)c(C(=O)NCCc3c(C)[nH]c4ccc(C)cc34)cc2c1	inactive: -0.74%
COc1ccccc1NC(=O)Cn1cnc2ccc(S(=O)(=O)N3CCC(C)CC3)cc2c1=O	inactive: 14.7%
COCCCN1C(=O)c2[nH]nc(-c3cc(C)ccc3O)c2C1c1ccc(F)cc1 (centres undefined)	inactive: -19%

SMILES	activation
COc1ccc(CNC(=O)c2cc3sccc3n2Cc2ccc(F)cc2)cc1	inactive: 19.9%
Cc1cc(OCC(=O)N(Cc2ccc(N(C)C)cc2)Cc2ccco2)cc(C)c1Cl	inactive: -32.5%
CCOC(=O)c1ccc(OC(=O)c2cn(-c3ccc(C)cc3)c(=O)c3ccccc23)cc1	inactive: 10.5%
Cc1nn(-c2ccccc2)c(-n2cccc2)c1C(=O)N1CCN(c2ccccc2)CC1	inactive: -5.23%
COc1ccc(NC(=O)Cn2c(=O)n(Cc3ccco3)c(=O)c3sc4ccccc4c32)c(OC)c1	inactive: 19.8%
Cc1ccc(NC(=O)C2CCCN(C(=O)c3cnn(-c4ccccc4)c3-n3cccc3)C2)cc1 (centres undefined)	inactive: -8.72%
CN(C)c1ccc(O)c2c1C[C@H]1C[C@H]3[C@H](N(C)C)C(=O)C(C(N)=O)=C(O)[C@@]3(O)C(=O)C1=C2O	inactive: -59.8%
COc1ccc(CNCCC(c2ccc(C)cc2)c2ccco2)cc1 (centres undefined)	inactive: -7.58%
O=C(Nc1noc2ccccc12)c1cccc(Cl)c1Cl	inactive: -6.03%
Cc1ccccc1NC(=O)C(Cc1ccccc1)N1Cc2ccccc2C1=O (centres undefined)	inactive: -23.3%
COc1ccccc1/C=C/c1onc(C)c1S(=O)(=O)N1CCC(C(=O)N2CCC(C)CC2)CC1	inactive: -6.77%
CCc1nnc(NC(=O)CSc2nc3c([nH]c4ccccc43)c(=O)n2-c2ccc(F)cc2)s1	inactive: -8.49%
Cc1ccc2oc(=O)c3cc(C(=O)Nc4ccc(C)c(F)c4)sc3c2c1	inactive: -4.85%
Cc1c(Cl)cccc1NC(=O)c1cc(S(=O)(=O)N2CCCCC2)cn1C	inactive: 19.2%
Cc1ccc(-n2nc(C)c3c(C)cc(=O)n(CC(=O)Nc4cc(Cl)ccc4C)c32)cc1	inactive: -5.34%
Nc1ccc2oc(-c3ccccc3Br)nc2c1	inactive: 8.72%
Cc1cccn2c(=O)cc(COc3ccc(NC(=O)C(C)C)cc3)nc12	inactive: 0.42%
COC(=O)c1sccc1S(=O)(=O)N(CC(=O)Nc1ccccc1C)c1ccc(Cl)cc1	inactive: -18.9%
Cc1ccccc1NC(=O)CSc1nc2ccc(NC(=O)CCc3ccccc3)cc2s1	inactive: 3.99%
COc1ccccc1-c1nnc(C2CCN(S(=O)(=O)c3ccc(CC(C)C)cc3)CC2)o1	inactive: -19.6%
Nc1c(C(=O)Nc2ccc(C(F)(F)F)cc2)sc2nc(-c3cccs3)ccc12	active: 70.8%
